In all, about 33,000 sequences were measured (“E-score (-0.5 to 0.5)”: median about -0.054, highest 2% from about 0.35 on). The list shows a part of the results.
Biological target: T1, Stb5 (UniProt P38699)
T1 sequence: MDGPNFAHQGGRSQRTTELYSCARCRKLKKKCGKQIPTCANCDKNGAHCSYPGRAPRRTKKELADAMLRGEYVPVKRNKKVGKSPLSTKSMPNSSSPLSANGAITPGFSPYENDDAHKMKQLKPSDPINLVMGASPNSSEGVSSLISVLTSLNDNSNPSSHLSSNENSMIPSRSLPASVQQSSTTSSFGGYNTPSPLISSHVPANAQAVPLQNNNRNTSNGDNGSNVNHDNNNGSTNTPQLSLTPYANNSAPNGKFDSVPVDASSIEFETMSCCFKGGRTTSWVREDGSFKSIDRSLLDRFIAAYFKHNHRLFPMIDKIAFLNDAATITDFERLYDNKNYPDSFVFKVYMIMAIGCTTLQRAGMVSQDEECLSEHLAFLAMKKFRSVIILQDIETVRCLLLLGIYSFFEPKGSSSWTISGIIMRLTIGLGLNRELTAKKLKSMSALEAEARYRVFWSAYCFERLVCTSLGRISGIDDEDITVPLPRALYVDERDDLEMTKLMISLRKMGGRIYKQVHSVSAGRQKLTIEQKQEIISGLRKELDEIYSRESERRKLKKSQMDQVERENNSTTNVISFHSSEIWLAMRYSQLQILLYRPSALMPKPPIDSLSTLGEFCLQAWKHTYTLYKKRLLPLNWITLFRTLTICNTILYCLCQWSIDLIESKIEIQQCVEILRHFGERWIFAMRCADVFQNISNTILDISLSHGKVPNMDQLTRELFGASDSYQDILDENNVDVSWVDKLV
Assay: PBM E-score (8-mer binding enrichment) (E-score (-0.5 to 0.5)); higher = stronger / more preferred TF binding; most listed sequences are background and not binding sites
Settings: protein concentration: 200 nM; construct: GST-full length
In short: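 E-scores (a modified Wilcoxon-Mann-Whitney statistic) were assigned by the Universal PBM Analysis Suite to every ungapped eight-base word pooled with its reverse complement. The input came from universal all-10-mer Agilent arrays made double-stranded by primer extension and probed with GST-tagged yeast transcription factors at about 100-200 nM. Fluorescent anti-GST detected bound protein, and masliner normalised the scans.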

Sequence	PBM E-score
AGCCGCAT	0.0777
ATGAAAAG	-0.248
CTCTAGAC	-0.146
ACATACTA	-0.032
ATATCTGC	0.0369
ACGTCCCT	-0.169
ACGATAAA	-0.0668
GTTGACTA	0.0237
AACTCTCT	-0.148
GCCTTGGA	-0.177
ACATGTAA	-0.0168
AGAGGCTG	-0.282
AAAGTAGG	-0.0499
CTCAAACA	0.159
TAGGCCCA	-0.295
ACTGCCCG	0.04
AGCGCTTA	0.0748
ATGTGAAC	-0.163
ACGACAAC	-0.153
TAAATTAA	0.104
CCTTGATA	-0.0995
ATTGCACC	0.246
ATCTAGCA	-0.114
GGCGCTTA	0.228
ATATTAAT	0.0976

Sequence	PBM E-score
GATCGACA	-0.215
GTCGCAGA	0.0129
AATCTTGT	-0.00431
ACCCTCCC	0.077
CCATTTGA	0.032
CGTGCTAA	-0.169
AACGAAGG	-0.23
CTTCAGTC	-0.0437
TCTTCGCA	0.0604
TACTCCAA	-0.181
ACGTCAAC	-0.0756
ATTGAGTG	-0.174
GATCAGGC	-0.0739
TCCAAGGA	0.0882
AGTCTAGA	-0.15
ATCGCAAA	-0.106
GAGCACTA	-0.13
GCTAATCA	-0.0524
AAGATGGA	-0.132
GCTGCCCA	-0.238
AGCGTTGG	-0.236
GCGCTGGA	-0.00934
TATTGCCA	-0.0262
ATTCGCTC	-0.0604
CGAAGTCA	-0.248

Sequence	PBM E-score
GATGTTCC	-0.0385
ACAGCTCC	-0.0573
TACAATCA	-0.121
AAATGTAG	-0.124
AAGAGATA	-0.294
ATTCGTAC	-0.0154
GGGCTCAA	0.116
GATGCCGC	0.349
GGATCCAC	-0.0724
CAGAGGTA	-0.237
CTAACACC	0.401
CGAGCTCG	-0.119
GGCGTAGA	0.026
AATTCGCA	-0.0302
GATCACGA	-0.157
CGCGTAGC	0.115
CCCTACGG	0.158
GACACTAC	0.00991
ATACTCGC	0.0238
CTAGAATA	0.0173
CCTTCAGC	-0.169
CAGACATA	-0.0364
CCGCGGAG	0.298
AAACGGCA	0.225
ACTAGCGA	0.07

Sequence	PBM E-score
ATACATCA	-0.0827
GTCTTCAA	-0.405
AAACGTAT	0.0227
ACCGTAAA	0.153
ACTGGCAA	-0.119
AAATGTGG	0.0621
GCGCAAAA	0.0272
AGGGAGTA	-0.109
CACGTTGC	-0.137
AAGTTCAT	0.0526
GAGCGCGC	0.0402
GGACCCCC	-0.0328
ACTTGCAC	-0.0278
AGACCACC	-0.104
AGGCGGCC	0.235
AGGTCGAC	-0.236
GGCCAACC	-0.103
TATACGAA	-0.00442
AATGATAA	0.0347
ACACTCCT	-0.0969
AATTCCAC	-0.0996
TCTGGCCA	-0.248
ATGGGGCG	-0.0875
AGAACTGA	-0.221
CCTTAGCA	-0.0612

Sequence	PBM E-score
GCGATACC	0.0758
ATCGACGC	-0.0925
GGCCAGAC	-0.0267
ATTTAGTA	0.0808
GGATTAAA	0.323
GCGGTTGA	0.0123
ATGTTCAA	0.121
CCGCACGG	0.305
CAGGTTGG	-0.235
ACAATGCA	-0.157
CCGCCTTA	0.246
CGAAAGCC	0.0408
CGTGGTTA	-0.0972
AAGACACG	-0.0417
AGTCCGTC	0.389
AGTACTAA	-0.156
AAGTTCCT	-0.098
AGATTCCA	-0.193
ATAGTAGA	-0.164
ACGATGCA	-0.0665
AGTATCTG	-0.2
ACTGTTGA	-0.119
TATATGAA	-0.112
GAGGTATA	-0.0269
ACGCACTA	-0.153

Sequence	PBM E-score
CTTTGCCC	-0.104
AGCGCGGA	0.272
ATGTATGG	-0.0509
CCCCTGAA	-0.185
ATCTATTA	-0.102
AGACCCCC	-0.165
CATCCAAG	-0.301
AGCACGAT	-0.227
CCTTCAAG	-0.127
AAGGGTAG	-0.194
GCTAGTTA	-0.0825
GCAGAATA	0.115
CAACTCAC	-0.124
ACGAGCCC	-0.143
TGAACAAA	0.00178
AGGATATG	0.00887
ATTCTATG	0.0222
ATACCGAA	0.242
ATACGGGC	0.103
CAGTCTGG	-0.133
AAGTCAAA	-0.0252
AAGCACGG	0.0437
TGAGGACA	-0.194
GCTCGCAC	0.0814
TCTAACCA	-0.167

Sequence	PBM E-score
CGGCCGGA	0.242
CCTACAGC	0.0176
AAACATTA	-0.125
CCGCTTAG	0.188
CCCACAGG	0.124
CAGAAATA	0.036
CTCCGAAG	0.227
AACGGCAC	0.306
ATGCCCTC	-0.0595
GAGCTCGA	-0.257
ATCATCGC	0.0263
CCTTTGTC	-0.103
CTACAGAA	-0.216
CCCTTGTA	-0.165
TCCGGGAA	0.212
CAGAGATC	-0.177
TAGGCACA	-0.21
GTGATTTA	0.0455
CCCTCACG	-0.043
AATCGTGG	-0.208
AATTTTTG	-0.207
AGACGACG	-0.0652

— the supplement of paper PMC3334620
